# Data as given in publication PMC7819943, “Rice protein-binding microarrays: a tool to detect cis-acting elements near promoter regions in rice”.
# The other results are listed elsewhere or left out.
# Biological target: T1, OsWOX13 (Oryza sativa, UniProt Q5QMM3 1-267)
# T1 sequence: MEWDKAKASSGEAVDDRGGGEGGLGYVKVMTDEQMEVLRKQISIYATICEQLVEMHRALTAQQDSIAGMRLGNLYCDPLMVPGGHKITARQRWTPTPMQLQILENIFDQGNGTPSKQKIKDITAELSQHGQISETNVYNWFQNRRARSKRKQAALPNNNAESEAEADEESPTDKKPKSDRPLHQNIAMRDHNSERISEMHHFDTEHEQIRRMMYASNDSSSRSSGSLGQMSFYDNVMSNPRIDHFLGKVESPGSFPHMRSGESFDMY
# Assay: protein-binding microarray (RPBM); PBS, 2% BSA, 51.3 ng/ul salmon testes DNA, 50 uM zinc acetate, 200 nM TF, 25 C, 1 h; high values mean tight binding
# Details: protein: recombinant; tags: N-terminal polyhistidine and DsRed monomer fusion (pET32a); label: CyDye5-dUTP incorporated in the synthesized complementary strand; 3' TTTTT single-stranded linker to array surface; dsDNA, one strand shown
# Summary of the method: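 A custom Agilent array was converted to double-stranded form by primer extension with Cy5-dUTP and blocked with 2% BSA. Protein at 200 nM in PBS with 2% BSA, salmon testes DNA and 50 µM zinc acetate was applied for 1 h at 25 °C, followed by washing. The proteins were polyhistidine–DsRed N-terminal fusions of transcription factors, expressed in E. coli BL21-CodonPlus and Ni–NTA-purified. The binding signal is per-feature fluorescence intensity (arbitrary units) from an Axon 4000B scanner.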
row,Sequence,binding signal
1,TGAAATGATTGGATAGAAGGCGATTCAAAATGAAACTTTGCGGAGTCACCTAGTGCAG,42000 fluorescence intensity (a.u.)
2,TTAGATGCAATTTAATTTAGTACAACGAATCATGATATGTCGGAGTCACCTAGTGCAG,3750 fluorescence intensity (a.u.)
3,TAAACAATCAAGTCCCTTTCTCCTACTTGCTGAATGTACTCGGAGTCACCTAGTGCAG,6020 fluorescence intensity (a.u.)
4,GTAATGTGACGATTAAGAAATCAACATTGATAGCCATTATCGGAGTCACCTAGTGCAG,5250 fluorescence intensity (a.u.)
5,TAACTGATTTGACTCGTGCGTACACGCATCGCAGTGACAACGGAGTCACCTAGTGCAG,15800 fluorescence intensity (a.u.)
6,CATAAATCATGGGGACTGAGATGCAAAACTGACCCTAACACGGAGTCACCTAGTGCAG,4540 fluorescence intensity (a.u.)
7,AATATGATAGATGTGCTCGGGCTCCTGGGAAAGAGGCCACCGGAGTCACCTAGTGCAG,7990 fluorescence intensity (a.u.)
8,ACCCTGTAAACTTGTTAATTGAATTCTAGTGGATGCACTGCGGAGTCACCTAGTGCAG,23400 fluorescence intensity (a.u.)
9,TTTGTGATAGATTAGCGCATAGTAAATAATATAATACAAACGGAGTCACCTAGTGCAG,6830 fluorescence intensity (a.u.)
10,TCACCACGTAGACAAATTCAATCAACCGGCTACCCTCCCGCGGAGTCACCTAGTGCAG,7540 fluorescence intensity (a.u.)
11,ACACTATTGATTTTGAACACGCATTTAACAATTTATCTTACGGAGTCACCTAGTGCAG,6390 fluorescence intensity (a.u.)
12,ACGATGAACAAATCAACCCAAATAACGTACCGTCGATTTTCGGAGTCACCTAGTGCAG,3930 fluorescence intensity (a.u.)
13,AGTTAATTAGTAAAGCCCAAGCAGTCCAGTAACCAATCCGCGGAGTCACCTAGTGCAG,34400 fluorescence intensity (a.u.)
14,AAAATAGATTTAATTATTAATTTAATAAAACTAATTTGATCGGAGTCACCTAGTGCAG,39300 fluorescence intensity (a.u.)
15,CTTTTATGATTAGGCCATAGAATATAAACAGTAATTCCGGCGGAGTCACCTAGTGCAG,24200 fluorescence intensity (a.u.)
16,CGCAATTGACATTTTATCACACGTTTAATCATTCATCTTACGGAGTCACCTAGTGCAG,35700 fluorescence intensity (a.u.)
17,AGCTGTCCCGTGATTTGTTCGTATCTTCCAGATATGCAAACGGAGTCACCTAGTGCAG,3850 fluorescence intensity (a.u.)
18,ACTAAACAATTAAGCTCCCAAATCACATCACAAACACCCCCGGAGTCACCTAGTGCAG,8520 fluorescence intensity (a.u.)
19,GTGATCTGATGAATGCATTTCGTGATTCCATTGCACTTGCCGGAGTCACCTAGTGCAG,3370 fluorescence intensity (a.u.)
20,TGGGATTTGTAATTTGTGGTGAAATGAGGAGCCTAATCCACGGAGTCACCTAGTGCAG,10500 fluorescence intensity (a.u.)
21,ATTCCTAAATTGCTCTACCCCTTGCTCAGAATCCTTGTTACGGAGTCACCTAGTGCAG,4940 fluorescence intensity (a.u.)

row,Sequence,binding signal
1,TTATAAAGATTTAATTGCAACGAACATAATAGTGTAATCGCGGAGTCACCTAGTGCAG,15000 fluorescence intensity (a.u.)
2,CATCTTCTTTGATTAGCGTGAAAATATAAAACACAAACATCGGAGTCACCTAGTGCAG,12300 fluorescence intensity (a.u.)
3,GCAGATAATTGACTCCCCTGGCATTGACATGGCCTTCCCACGGAGTCACCTAGTGCAG,39500 fluorescence intensity (a.u.)
4,TGTAATTTGTTCTTGTTATCATCAATCCCATATAAACTGGCGGAGTCACCTAGTGCAG,22300 fluorescence intensity (a.u.)
5,AGCTAGTTAAATAGAGGATTAATAATCGAAACAGTGAAACCGGAGTCACCTAGTGCAG,3470 fluorescence intensity (a.u.)
6,CCCAATTAACAGGCATGCACATTTGGGCTTGCAACACTGACGGAGTCACCTAGTGCAG,22200 fluorescence intensity (a.u.)
7,CAAATCAATATATTGCATGTGGATTATAAATGTTTGTGTGCGGAGTCACCTAGTGCAG,3200 fluorescence intensity (a.u.)
8,GAGATTAACATATGAAGAATTGAAGAAACCGGCCAGTAAACGGAGTCACCTAGTGCAG,3340 fluorescence intensity (a.u.)
9,ACCATTAACAAATCAATCCGAGCATTTTCTTTCTTTTGATCGGAGTCACCTAGTGCAG,11200 fluorescence intensity (a.u.)
10,GTAGAGATAGATAATATAATTTATTTCATATGGGTAGTCCCGGAGTCACCTAGTGCAG,12000 fluorescence intensity (a.u.)
11,TACATTATTACAGCGGTCTTAATTAATCAAGCCAAGGCAGCGGAGTCACCTAGTGCAG,3650 fluorescence intensity (a.u.)
12,CTTAATTAATATATATTTGTGAAGACCTAACTTCGAGTCCCGGAGTCACCTAGTGCAG,37400 fluorescence intensity (a.u.)
13,TGGTTAGTTGATTTTATGATTTAGAGTAGAAGTTCGTTCGCGGAGTCACCTAGTGCAG,10100 fluorescence intensity (a.u.)
14,AAGTAAACTGATCTGATCACGCGAGCTGGGCTAAAATGGACGGAGTCACCTAGTGCAG,5540 fluorescence intensity (a.u.)
15,AACACTGATTGCACATCAAGGTCCCCACTCAATGATAAACCGGAGTCACCTAGTGCAG,38600 fluorescence intensity (a.u.)
16,AGTAATTTTGGTACAATTAATAAATAAATCTGATACCTCACGGAGTCACCTAGTGCAG,21200 fluorescence intensity (a.u.)
17,GGCTGATTATTTTAGACGTGTTTAGGGGTGAATTTGGATTCGGAGTCACCTAGTGCAG,28400 fluorescence intensity (a.u.)
18,GCCTAATTTATGCCTCATACCAAACCAGCCCATAAAATACCGGAGTCACCTAGTGCAG,11400 fluorescence intensity (a.u.)
19,TTGTAGCAAGATCCCAATCATAATAGATGATGGCAAATGCCGGAGTCACCTAGTGCAG,5460 fluorescence intensity (a.u.)
20,ATACTTGATTTAAAGCACGAGAAACGAGCCAACGACCGAACGGAGTCACCTAGTGCAG,3630 fluorescence intensity (a.u.)
21,ATGAGCCTAACCATTTCTAGTGTTACTTACTCCATTTCAGCGGAGTCACCTAGTGCAG,64200 fluorescence intensity (a.u.)
